# Test results as given in PubChem BioAssay AID686979 (National Center for Advancing Translational Sciences (NCATS), 2013).
# Screen size: about 420,000 compounds; about 50,000 (12%) were called active. Inconclusive results, whose numbers are uncertain, are shown with a selection of clear calls. Calls come from the whole dose curve; as a rule, active = well fitted inhibition curve with a large enough effect; inconclusive = small, poorly fitted or top-dose-only effect; inactive = flat fitted curve, though single readings scatter. No potency is given beside an inconclusive call; the fits are too rough.
# Assay: qHTS for Inhibitors of human tyrosyl-DNA phosphodiesterase 1 (TDP1): qHTS in cells in presence of CPT; note: nearly all actives have a fitted effect of over 55% in size
# Conditions: chicken DT40 Tdp1-/-;hTDP1 cells + 20 nM CPT, ATP luminescence, 48 h; series mostly up to 46.2 µM
# How it was run: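 Chicken DT40 Tdp1-/- cells complemented with human TDP1, 400 cells/well, exposed to compounds plus 20 nM camptothecin for at least 48 h at 37 C; viability read as ATP content by CellTiter-Glo luminescence.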
# Potency is the fitted concentration of half-maximal effect; tags give direction and shape of the fitted curve.
row,Compound,Potency
1,COc1ccc(NS(=O)(=O)c2cc(NC(=O)CC(=O)c3ccc([N+](=O)[O-])cc3)ccc2C)cc1,"inconclusive [inhibitor, single point]"
2,CN(C)CCN(Cc1ccccc1)C(=O)[C@H](Cc1ccccc1)N1C(=O)c2ccccc2C1=O,inactive
3,COc1ccc(-c2csc(NC(=O)CSc3nc(SC)ns3)n2)cc1,"inconclusive [inhibitor, single point]"
4,COc1ccc(C(=O)NC(=S)Nc2ccc(CN3CCOCC3)cc2)cc1Br,"inconclusive [inhibitor, single point]"
5,Cc1cc(C)n(-c2ccc(C(=O)Nc3ccc4c(c3)OCO4)cc2)n1,"inconclusive [inhibitor, single point]"
6,CCOC(=O)C(C(=O)OCC)C(Nc1cccc(Br)c1)c1ccccc1 (centres undefined),active: 14.6 µM
7,CCC(C)C(CO)NCCCn1cnc2c(OCc3ccccc3)ncnc21 (centres undefined),inactive
8,Cc1nc2c(c(C)nn2C(C)(C)C)c(C)c1CCC(=O)Nc1ccc(F)cc1,"inconclusive [inhibitor, partial curve, poor fit]"
9,COc1ccc(CNC(=O)c2ccc(Cl)c(S(=O)(=O)N3CCCCCC3)c2)cc1,"inconclusive [inhibitor, single point]"
10,COc1ccc(CNC(C)CCc2ccccc2)cc1 (centres undefined),"inconclusive [inhibitor, partial curve]"
11,CC1CCCCN1C(=O)CSc1nc(C2CC2)nc2c1cnn2-c1ccccc1 (centres undefined),"inconclusive [inhibitor, single point]"
12,O=C(CCc1nnc2ccc(NCc3ccco3)nn12)N1CCN(c2ccccc2F)CC1,"inconclusive [inhibitor, single point]"
13,NN/C(=C\[N+](=O)[O-])Nc1ccc(Cl)cc1,"inconclusive [inhibitor, single point]"
14,Cc1cccc(NC(=O)CCC(=O)N2CCOCC2)n1,inactive
15,Cc1ccc(C(C(=O)NCc2ccccc2)N(Cc2cccs2)C(=O)c2ccc3c(c2)OCCO3)cc1 (centres undefined),active: 9.2 µM
16,COc1ccc(-n2c(=S)[nH]c3cc(C(=O)NCCCN4CCCC4=O)ccc3c2=O)c(OC)c1,inactive
17,CC(Sc1cccc[n+]1[O-])C(=O)Nc1cccc(S(=O)(=O)N2CCOCC2)c1 (centres undefined),"inconclusive [inhibitor, single point]"
18,O=C(Nc1cccc(Br)c1)c1ccc2snnc2c1,"inconclusive [inhibitor, partial curve]"
19,Cn1c(C(=O)NCc2cccc(Cl)c2)cc2oc3ccccc3c21,"inconclusive [inhibitor, single point]"
